The values below come from the antibiotic and cytotoxicity screens of Wong et al. (2023).

This is one part of the list.

The experiment deals with S. aureus RN4220. The experiment in a line: growth inhibition call (relative growth <= 0.2). The following applies: 50 µM.
On to `Cc1noc(C)c1S(=O)(=O)Nc1cccc2c1O[C@@H](CN(C)Cc1ccccc1)[C@@H](C)CN([C@H](C)CO)C2=O`, for which the growth inhibition call was “inactive”.
For `C[C@@H]1CN([C@@H](C)CO)C(=O)c2cc(NC(=O)Nc3ccc4c(c3)OCO4)ccc2O[C@@H](C)CCCCO[C@@H]1CN(C)C(=O)C1CCCCC1`, the growth inhibition call is “inactive”.
`COc1ccc(CN(C)C[C@@H]2OCCCC[C@H](C)Oc3ccc(NC(=O)c4ccncc4)cc3C(=O)N([C@@H](C)CO)C[C@H]2C)cc1`: the growth inhibition call was “inactive”.
As for `COc1ccc(NC(=O)Nc2ccc3c(c2)C(=O)N([C@@H](C)CO)C[C@@H](C)[C@@H](CN(C)Cc2ccc(Cl)c(Cl)c2)OCCCC[C@@H](C)O3)cc1`, the entry is “inactive”; as for `O=C([C@@H]1[C@@H](CO)[C@@H]2Cn3c(cccc3=O)[C@@H]2N1C(=O)C1CCCC1)N1CCOCC1`, “inactive”.
With `O=C(C[C@@H]1CC[C@@H]2[C@H](COC[C@H](O)CN2C(=O)C2CC2)O1)NCc1ccncc1`, the growth inhibition call was “inactive”.
As for `CN1CCN(C(=O)C[C@H]2CC[C@H]3[C@@H](COC[C@H](O)CN3C(=O)C3CCOCC3)O2)CC1`, the entry is “inactive”; as for `COc1ccc2c3c(n(c2c1)C)[C@@H](CO)N(C[C@]13CCN(CC1)C(=O)Nc1cccc(c1)F)C(=O)CN1CCOCC1`, “inactive”; as for `Cc1ccc(S(=O)(=O)N(C)C[C@H]2Oc3c(NC(=O)c4ccncc4)cccc3C(=O)N([C@H](C)CO)C[C@H]2C)cc1`, “inactive”.
Take `C[C@@H]1CN([C@@H](C)CO)C(=O)c2cc(NC(=O)C3CCCCC3)ccc2O[C@@H](C)CCCCO[C@@H]1CN(C)Cc1ccccc1`: the growth inhibition call is “inactive”.
